Laboratory results from patent publication US20250312345A1, “NON-COVALENT INHIBITORS OF THE MAIN PROTEASE OF SARS-COV-2 AND METHODS OF USE” (YALE UNIVERSITY, priority 2022, published 2025).

Tests used:
infectious SARS-CoV-2 [1] = type: cell-based; conditions: Vero E6 cells
infectious SARS-CoV-2 [2] = test: Antiviral MTT assay (cytopathic effect) in Vero E6 cells; type: cell-based
infectious SARS-CoV-2 [3] = conditions: footnote g only: Zhang et al., ACS Cent. Sci. 2021; method not marked; read-out: EC50 infectious virus; cited from earlier work

Structure (SMILES) | antiviral activity in viral plaque assay (infectious SARS-CoV-2 [1]) | antiviral activity in MTT assay (infectious SARS-CoV-2 [2]) | EC50 (infectious SARS-CoV-2 [3])
O=c1[nH]cc(-c2cc(-c3cc(Cl)cc(OCc4ccccc4Cl)c3)c(=O)n(-c3cccnc3)c2)c(=O)[nH]1 [Compound 37, 5-(3-(3-Chloro-5-((2-chlorobenzyl)oxy)phenyl)-2-oxo-2H-[1,3′-bipyridin]-5-yl)pyrimidine-2,4(1H,3H)-dione] | showed activity | lacked antiviral activity | –
O=c1[nH]cc(-c2cc(-c3cc(Cl)c(F)c(OCc4ccccc4Cl)c3)c(=O)n(-c3cccnc3)c2)c(=O)[nH]1 [Compound 44, 5-(3-(3-Chloro-5-((2-chlorobenzyl)oxy)-4-fluorophenyl)-2-oxo-2H-[1,3′-bipyridin]-5-yl)pyrimidine-2,4(1H,3H)-dione] | showed activity | lacked antiviral activity | –
O=c1[nH]cc(-c2cc(-c3cc(Cl)cc(OCc4ccccc4)c3)c(=O)n(-c3cccnc3)c2)c(=O)[nH]1 [Compound 46, 5-(3-(3-(Benzyloxy)-5-chlorophenyl)-2-oxo-2H-[1,3′-bipyridin]-5-yl)pyrimidine-2,4(1H,3H)-dione] | antiviral activity was found | not in the MTT assay | –
O=c1[nH]cc(-c2cc(-c3cc(Cl)cc(OCc4ccc(F)cc4Cl)c3)c(=O)n(-c3cccnc3)c2)c(=O)[nH]1 [Compound 48, 5-(3-(3-Chloro-5-((2-chloro-4-fluorobenzyl)oxy)phenyl)-2-oxo-2H-[1,3′-bipyridin]-5-yl)pyrimidine-2,4(1H,3H)-dione] | – | – | 1.1 ± 0.5 µM
